Assay results: the supplement of paper PMC4604168 (melanoma cell lines)
This is one part of the list. Many values rest on one well or one pass, so single values are uncertain.

What follows are compounds tested on WM115 (assay: cell count relative to DMSO control; melanoma cells; higher = more viable cells). Details: library dose: low library concentration; 72 h.
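Note: cell number obtained by counting DAPI-stained nuclei in high-throughput microscope images with image analysis software, screen run in 1,536-well plates.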

Structure (SMILES) | cell count [%]
CC(=O)c1c(C)c2cnc(Nc3ccc(N4CCNCC4)cn3)nc2n(C2CCCC2)c1=O [palbociclib] + CCN(CC)CCCCNc1ncc2cc(-c3cc(OC)cc(OC)c3)c(NC(=O)NC(C)(C)C)nc2n1 [PD173074] (first compound 0.04 µM, partner dose 0.1 µM) | 71.7
Nc1ncn([C@H]2C[C@H](O)[C@@H](CO)O2)c(=O)n1 [decitabine] + COc1cc2c(Oc3ccc4[nH]c(C)cc4c3F)ncnc2cc1OCCCN1CCCC1 [cediranib] (first compound 0.1 µM, partner dose 0.4 µM) | 82.5
CC(=O)c1c(C)c2cnc(Nc3ccc(N4CCNCC4)cn3)nc2n(C2CCCC2)c1=O [palbociclib] + Cc1nc(Nc2ncc(C(=O)Nc3c(C)cccc3Cl)s2)cc(N2CCN(CCO)CC2)n1 [dasatanib] (first compound 0.04 µM, partner dose 0.004 µM) | 62.3
CO[C@H]1C[C@@H]2CC[C@@H](C)[C@@](O)(O2)C(=O)C(=O)N2CCCC[C@H]2C(=O)O[C@H]([C@H](C)C[C@@H]2CC[C@@H](OCCO)[C@H](OC)C2)CC(=O)[C@H](C)/C=C(\C)[C@@H](O)[C@@H](OC)C(=O)[C@H](C)C[C@H](C)/C=C/C=C/C=C/1C [everolimus] + C=CCNC1=C2C[C@@H](C)C[C@H](OC)[C@H](O)[C@@H](C)/C=C(\C)[C@H](OC(N)=O)[C@@H](OC)/C=C\C=C(/C)C(=O)NC(=CC1=O)C2=O [Tanespimycin] (first compound 0.02 µM, partner dose 0.002 µM) | 67.9
CC(=O)O[C@@]12CO[C@@H]1C[C@H](O)[C@@]1(C)C(=O)[C@H](O)C3=C(C)[C@@H](OC(=O)[C@H](O)[C@@H](NC(=O)OC(C)(C)C)c4ccccc4)C[C@@](O)([C@@H](OC(=O)c4ccccc4)[C@H]21)C3(C)C [Docetaxel] + Cc1ccc(NC(=O)c2cccc(N(C)C)c2)cc1NC(=O)c1ccc(O)cc1 [ZM336372] (first compound 0.0001 µM, partner dose 2 µM) | 63
CC(=O)O[C@@]12CO[C@@H]1C[C@H](O)[C@@]1(C)C(=O)[C@H](O)C3=C(C)[C@@H](OC(=O)[C@H](O)[C@@H](NC(=O)OC(C)(C)C)c4ccccc4)C[C@@](O)([C@@H](OC(=O)c4ccccc4)[C@H]21)C3(C)C [Docetaxel] + O=C1NC(=O)/C(=C/c2ccc(-c3ccc(F)cc3O)o2)S1 [AS252424] (first compound 0.0001 µM, partner dose 1 µM) | 70.6
Nc1ncn([C@H]2C[C@H](O)[C@@H](CO)O2)c(=O)n1 [decitabine] + C[C@]1(c2nc3c(C(N)=O)cccc3[nH]2)CCCN1 [Veliparib] (first compound 0.1 µM, partner dose 1.4 µM) | 77.5
Nc1ncn([C@H]2C[C@H](O)[C@@H](CO)O2)c(=O)n1 [decitabine] + COc1ccc(Cl)c(Nc2nc3ccccc3nc2NS(=O)(=O)c2cccc(NC(=O)C(C)(C)N)c2)c1 [XL147] (first compound 0.1 µM, partner dose 0.8 µM) | 89.9
CO[C@H]1C[C@@H]2CC[C@@H](C)[C@@](O)(O2)C(=O)C(=O)N2CCCC[C@H]2C(=O)O[C@H]([C@H](C)C[C@@H]2CC[C@@H](OCCO)[C@H](OC)C2)CC(=O)[C@H](C)/C=C(\C)[C@@H](O)[C@@H](OC)C(=O)[C@H](C)C[C@H](C)/C=C/C=C/C=C/1C [everolimus] + N#Cc1c(O)c2c(-c3ccc(-c4ccccc4O)cc3)csc2[nH]c1=O [A769662] (first compound 0.02 µM, partner dose 2 µM) | 73
Nc1ccn([C@@H]2O[C@H](CO)[C@@H](O)C2(F)F)c(=O)n1 [gemcitabine] + OCc1c[nH]c2ccccc12 [Indole-3-carbinol] (first compound 0.0004 µM, partner dose 0.8 µM) | 98.3
CO[C@H]1C[C@@H]2CC[C@@H](C)[C@@](O)(O2)C(=O)C(=O)N2CCCC[C@H]2C(=O)O[C@H]([C@H](C)C[C@@H]2CC[C@@H](OCCO)[C@H](OC)C2)CC(=O)[C@H](C)/C=C(\C)[C@@H](O)[C@@H](OC)C(=O)[C@H](C)C[C@H](C)/C=C/C=C/C=C/1C [everolimus] + Oc1cc(-c2nc(-c3ccccc3)[nH]c2-c2ccncc2)ccc1Cl [L779450] (first compound 0.02 µM, partner dose 0.2 µM) | 65
